Among all 44,000 compounds or so, about 340 (0.77%) were called active. About 5% were inconclusive and are not listed. Calls come from the whole dose curve; as a rule, active = well fitted inhibition curve with a large enough effect; inconclusive = small, poorly fitted or top-dose-only effect; inactive = flat fitted curve, though single readings scatter. The list shows a part of the results.
assay: Acumen qHTS Assay for Inhibitors of the mTORC1 Signaling Pathway in MEF (Tsc2-/-, p53-/-) Cells: Sytravon; conditions: phospho-rpS6 immunofluorescence/PI, 24 h; series mostly up to 38.3 µM; activity change, negative = inhibition: at the top concentration;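 note: plate controls were DMSO for no effect and rapamycin for full effect; nearly all actives have a fitted effect of over 50% in size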
In short: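 Cell-based qHTS: Tsc2-/- p53-/- MEF, 24 h cpd, 37 °C; fix/perm, anti-phospho-S6 Alexa-488 + PI; Acumen 488 nm scan; pS6/PI ratio, % positive cells; rapamycin 7.5 nM = inhibition ref; PI count = viability.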

Activity change, negative = inhibition, inactive:
COc1ccc(NC(=O)c2ccco2)cc1NC(=O)c1cccc(C)c1OC 1.38%, O=C(Nc1ccccc1)C1CCN(S(=O)(=O)c2ccc3c(c2)CCCN3C(=O)C2CCC2)CC1 -8.88%, COc1ccc(Cn2c(CCC(=O)Nc3cc(C)cc(C)c3)nc3cccnc32)cc1 1.66%, Cc1ccc2c(CN3CCN(c4ccc(Cl)cc4)CC3)cc(=O)oc2c1 0.861%, Cc1ccc(CNC(=O)CCCCCn2c(=O)c3sccc3n(CC(=O)C(C)(C)C)c2=O)cc1 2.83%, CCOc1cc(CNC(=O)CSc2n[nH]c(-c3ccccc3)n2)cc(OCC)c1OCC 0%, Cc1ccc(NC(=O)CSc2nc(=O)n(Cc3ccncc3)c3c2CCC3)cc1Cl -1.5%, COc1ccc(Nc2ncc(C(=O)Nc3cccc(OC)c3)c3ccccc23)cc1 0%, Cc1ccc(Cl)cc1N(C)C(=O)c1sc2nc3n(c(=O)c2c1C)CCCC3 2.95%, COC(=O)c1cc(NC2(c3ccccc3)C(=O)c3ccccc3C2=O)cc(C(=O)OC)c1 1.18%, O=C(NCC1(c2ccccc2)CCCC1)C(=O)Nc1cccc(C(F)(F)F)c1 -4.63%, COc1ccc2nc(NS(=O)(=O)c3ccc(C)cc3)c(Nc3cc(Cl)ccc3OC)nc2c1 -0.434%, CCOC(=O)Cn1c(=O)oc2cc(S(=O)(=O)NCc3ccc(F)cc3)ccc21 1.8%, Cc1ccc(Cl)cc1N1CCN(C(c2ccc(F)cc2)c2nnc(-c3ccccc3)o2)CC1 (stereo not given) -6.01%, COc1ccc(-c2cc(C(=O)N3CCN(c4ccccc4OC)CC3)c3cc(C(C)C)ccc3n2)cc1 -10.1%, COC(=O)c1sccc1S(=O)(=O)N1CCN(c2cccc(C)c2C)CC1 1.72%, O=C(CSc1n[nH]c(-c2ccccc2)n1)N1CCCCC1 4.06%, CCOc1ccc(CC(=O)NCCc2csc3nc(-c4ccccc4F)nn23)cc1 -14.8%, Cc1noc(/C=C/N(C)C)c1S(=O)(=O)N1CCCC(C(=O)Nc2cccc(F)c2)C1 (stereo not given) 1.04%, Cc1ccc(CNC(=O)c2nc(SCc3cccc(C)c3)ncc2Cl)cc1 1.7%, Cc1ccc(CNC(=O)c2cn(C)c3ccc(S(=O)(=O)N(C)C4CCCCC4)cc3c2=O)cc1 -2.94%, CCc1ccc(-n2nc3ccc(NC(=O)c4cc5ccccc5o4)cc3n2)cc1 -1.22%, CCOc1ccc(-c2cc3c(=O)n(Cc4nc(-c5cccc(OC)c5OC)oc4C)ccn3n2)cc1Cl -2.62%, CCC(=O)N1CCc2cc(S(=O)(=O)CCC(=O)N3CCN(c4cccc(C)c4)C(C)C3)ccc21 (stereo not given) -8.44%, CCN(Cc1ccc(OC)cc1)c1ccc(-c2nc(-c3ccncc3)no2)cc1[N+](=O)[O-] 2.36%, O=C(NCCc1ccccc1)c1ccc(Cn2c(SCc3ccc(F)cc3)nc3cccnc32)cc1 -2.98%, Cc1ccccc1Nc1c(-c2ccsc2)nc2c(C)cccn12 -18.1%, O=C(NCc1cccc(Cl)c1)c1cccn1-c1nnc(N2CCCC2)s1 -5.6%, Cc1cc(C)c(Cn2c3ccccc3c3cnn(CC(=O)NCCCc4ccccc4)c(=O)c32)c(C)c1 0.0411%, COc1ccc(OC)c(S(=O)(=O)N2Cc3ccccc3CC2C(=O)Nc2ccc(C(C)=O)cc2)c1 (stereo not given) -10.5%, Cc1ccc(CN(Cc2ccco2)c2cnc(S(C)(=O)=O)nc2C(=O)Nc2ccc(Br)cc2)o1 0.562%, COc1ccc(OC)c(CCNC(=O)CCn2c(=O)c3cccn3c3cccnc32)c1 2.49%, CCCCN(c1ccccc1)c1ncnc2c1cnn2-c1ccc(Cl)cc1 -0.155%, CC(C)Cn1c(=O)c2ccccc2n2c(-c3ccc(Br)cc3)nnc12 -19.1%, Cc1ccccc1NC(=O)Cn1c(=O)n(Cc2ccc3c(c2)OCO3)c(=O)c2oc3ccccc3c21 0.438%, Cc1cc(C)cc(C(=O)Nc2cc(C(F)(F)F)ccc2N2CCN(c3ccccc3)CC2)c1 -15.8%, Cc1ccc(-c2cn3cccc(C)c3n2)cc1NS(=O)(=O)c1ccccc1 -1.64%, Cc1cccc(N(CC(=O)NC(C)c2ccccc2)S(=O)(=O)c2ccccc2)c1C (stereo not given) 3.32%, Cc1ccc(-c2nn3c(C)nnc3c3ccccc23)cc1S(=O)(=O)NCCO -13.6%, CC(=O)Nc1ccc(S(=O)(=O)NCC2CCC(C(=O)NCCCOC(C)C)CC2)cc1 (stereo not given) 2.51%, CCOc1cc(C(=O)OCc2cc(=O)n3c(C)csc3n2)cc(OCC)c1OCC -6.03%, CCOC(=O)c1c(NC(=O)c2cc(-c3ccccc3)on2)sc2c1CCCC2 -9.56%, CC(C)Cn1c(=O)c2sccc2n2c(CCCC(=O)Nc3ccc(Cl)cc3)nnc12 0.377%, CS(=O)(=O)c1ncc(N(Cc2ccccc2)Cc2ccco2)c(C(=O)Nc2cccc(C(F)(F)F)c2)n1 0.381%, COc1cccc(-c2nc(SCc3cc(=O)c4cc(Cl)ccc4[nH]3)n[nH]2)c1 -5.04%, Cc1cc(C)c(NC(=O)CSc2nc(=O)n(Cc3ccco3)c3c2CCC3)c(C)c1 -5.7%, O=C(NCCc1ccc(Cl)cc1)c1ccc2nc(Cc3ccccc3)oc2c1 1.21%, CCc1ccc(CN(Cc2ccco2)C(=O)c2cc(-c3ccc(Cl)cc3)on2)cc1 -4.14%, Cc1cc2c(cc1S(=O)(=O)Nc1cccc(C(F)(F)F)c1)OCCN2C -2.69%, CCOc1ccc(-c2nonc2NC(=O)c2ccccc2C)cc1 -18.8%, COc1ccc2c(Sc3ccccc3)c(C(=O)NCCN(C)C)[nH]c2c1 0.444%, O=C(Cc1ccc(Cl)cc1)Nc1ccc2oc(-c3ccccc3)nc2c1 3.18%, CCN(CC)C(=O)c1sc2c(c1C)c(=O)n(-c1ccc(C)c(C)c1)c(=O)n2CC(=O)Nc1ccc(F)cc1 1.79%, CC(C)Oc1ccc(CNC(=O)Cc2ccc(NC(=O)N3CCSc4ncccc43)cc2)cc1 0%, Cc1ccc2c(c1)c(=O)c(S(=O)(=O)c1ccc(F)cc1)cn2CC(=O)Nc1ccc2c(c1)OCO2 -0.385%, Cc1ccc(Cl)cc1NC(=O)NC1COc2ccccc2C1 (stereo not given) -0.0612%, CCC(Cn1nnc2ccccc2c1=O)NC(=O)Nc1cc(Cl)ccc1OC (stereo not given) -3.89%, Cc1cccc(C2N3CC4(C(C)C)CN2CC(C(C)C)(C3)C4=O)c1 (stereo not given) -6.95%, Cn1c(=O)oc2cc(S(=O)(=O)NCCC(=O)Nc3ccc(F)c(Cl)c3)ccc21 -19%, CC(C)CN(CCNC(=O)c1cc(=O)[nH]c2ccc(S(=O)(=O)N3CCCCCC3)cc12)CC(C)C 7.98%

From PubChem BioAssay AID493208 (National Center for Advancing Translational Sciences (NCATS), 2011)
